# The list shows a part of the results. One pool of 16,384 single-stranded DNAs met each Rep nickase domain in vitro for 1 h at 37 °C with 3 µM enzyme; only the middle of the 90-letter strands is printed. The score is log2 (uncut reads / reads without enzyme); the lower, the more was cut; hits are not called. Counts are relative to all reads; where an enzyme cuts many sequences, the uncut ones exceed 0.
# Test system: T1, Rep nickase domain of Muscovy duck circovirus
# T1 sequence (Rep 1-111, printed without the tag): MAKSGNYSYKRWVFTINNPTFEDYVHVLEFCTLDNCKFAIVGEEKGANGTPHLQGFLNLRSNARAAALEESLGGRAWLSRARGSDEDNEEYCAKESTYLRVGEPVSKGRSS
# Assay: uncleaved DNA left, log2 of reads against the no-enzyme library (log2 ratio); higher = less cleavage (more negative = more Rep cleavage of the k-mer); sequences stand for … in CTCGTCCG…ACCGGAGA
# Procedure: (§1)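 A pool of 90-nt single-stranded DNAs with seven random bases just before the constant AC of the nick site (name = the seven bases) was cut by 3 µM recombinant His6-SUMO-tagged Rep nickase domain (300 nM DNA, 50 mM HEPES pH 8.0, 50 mM NaCl, 1 mM MnCl2, 1 h, 37 °C, three replicates). Uncut DNA was amplified and sequenced.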
row,Sequence,uncleaved DNA left (log2)
1,CTGGAGA,0.0505
2,TGATCGG,0.0297
3,CATTGGG,-0.00852
4,CTGCGCC,0.0588
5,GAGGTTT,-0.0467
6,ATTGCTG,0.065
7,TCGTGAT,0.0766
8,CAATGCG,-0.00305
9,TTACTGC,0.0859
10,CCCCAGG,-0.0268
11,ATTATGG,0.0129
12,TTTATTT,-0.179
13,TAACTTG,-0.0528
14,GATAAAT,0.0836
15,ACTACTG,0.0132
16,TTCAAAC,0.0371
17,TTGTATA,0.151
18,TATATAG,0.0595
19,AACCCAA,0.112
20,TTGACGA,0.0105

row,Sequence,uncleaved DNA left (log2)
1,CTAGACT,-0.12
2,GATGGTT,-0.0151
3,CTTCAAC,-0.147
4,TAGGGAA,0.0657
5,GATAAGC,0.121
6,TAACATT,-0.0458
7,CTAAGCA,0.039
8,GCAGGGT,0.0565
9,GAATTAA,0.0305
10,TAACCCG,-0.213
11,ATCCGCT,-0.129
12,CCAGACC,0.0357
13,GTCTGCA,-0.056
14,AACAGGC,-0.0473
15,TGCTACG,-0.121
16,ACATCGT,-0.131
17,GCTTTAA,0.0376
18,CCTCCGG,-0.0704
19,ACTCCGT,-0.0225
20,TGACGTG,0.277

# Test system: T2, Rep nickase domain of banana bunchy top virus
# T2 sequence (Rep 1-94, printed without the tag): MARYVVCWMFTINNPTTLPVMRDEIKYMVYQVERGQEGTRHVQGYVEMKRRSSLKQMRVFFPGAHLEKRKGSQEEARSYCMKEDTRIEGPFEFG
# Assay: as above
# Procedure: as §1
row,Sequence,uncleaved DNA left (log2)
1,CTGGAGA,0.0262
2,TGATCGG,0.0585
3,CATTGGG,-0.1
4,CTGCGCC,-0.0571
5,GAGGTTT,0.0692
6,ATTGCTG,0.0238
7,TCGTGAT,0.0866
8,CAATGCG,-0.0411
9,TTACTGC,0.0192
10,CCCCAGG,-0.168
11,ATTATGG,-0.00472
12,TTTATTT,-0.144
13,TAACTTG,-0.107
14,GATAAAT,0.056
15,ACTACTG,0.0807
16,TTCAAAC,0.00841
17,TTGTATA,0.0793
18,TATATAG,0.0364
19,AACCCAA,0.161
20,TTGACGA,-0.051

row,Sequence,uncleaved DNA left (log2)
1,CTAGACT,-0.156
2,GATGGTT,-0.0829
3,CTTCAAC,-0.054
4,TAGGGAA,0.0403
5,GATAAGC,0.102
6,TAACATT,0.0621
7,CTAAGCA,0.000261
8,GCAGGGT,0.101
9,GAATTAA,0.062
10,TAACCCG,-0.0112
11,ATCCGCT,-0.117
12,CCAGACC,0.0597
13,GTCTGCA,-0.0477
14,AACAGGC,-0.0149
15,TGCTACG,-0.17
16,ACATCGT,-0.0188
17,GCTTTAA,0.0466
18,CCTCCGG,-0.124
19,ACTCCGT,-0.114
20,TGACGTG,-0.018

# Test system: T3, Rep nickase domain of cabbage leaf curl virus
# T3 sequence (Rep 1-116, printed without the tag): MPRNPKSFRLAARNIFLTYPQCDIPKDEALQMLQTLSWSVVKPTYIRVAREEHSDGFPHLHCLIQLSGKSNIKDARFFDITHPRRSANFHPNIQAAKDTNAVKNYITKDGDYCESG
# Assay: as above
# Procedure: as §1
row,Sequence,uncleaved DNA left (log2)
1,CTGGAGA,-0.0643
2,TGATCGG,0.501
3,CATTGGG,-0.674
4,CTGCGCC,-0.505
5,GAGGTTT,0.379
6,ATTGCTG,-0.348
7,TCGTGAT,0.0992
8,CAATGCG,-0.18
9,TTACTGC,-0.162
10,CCCCAGG,0.316
11,ATTATGG,-0.0491
12,TTTATTT,0.0268
13,TAACTTG,-0.485
14,GATAAAT,0.386
15,ACTACTG,-0.217
16,TTCAAAC,0.306
17,TTGTATA,0.268
18,TATATAG,-0.638
19,AACCCAA,0.313
20,TTGACGA,-0.237

row,Sequence,uncleaved DNA left (log2)
1,CTAGACT,-0.131
2,GATGGTT,0.295
3,CTTCAAC,-0.0967
4,TAGGGAA,0.483
5,GATAAGC,0.0931
6,TAACATT,-3.62
7,CTAAGCA,-0.472
8,GCAGGGT,0.346
9,GAATTAA,0.143
10,TAACCCG,-0.988
11,ATCCGCT,-0.428
12,CCAGACC,0.188
13,GTCTGCA,0.0833
14,AACAGGC,-0.121
15,TGCTACG,-0.695
16,ACATCGT,-0.827
17,GCTTTAA,0.135
18,CCTCCGG,0.345
19,ACTCCGT,-0.356
20,TGACGTG,-0.15

# Test system: T4, Rep nickase domain of chickpea chlorotic dwarf virus
# T4 sequence (Rep 1-124, printed without the tag): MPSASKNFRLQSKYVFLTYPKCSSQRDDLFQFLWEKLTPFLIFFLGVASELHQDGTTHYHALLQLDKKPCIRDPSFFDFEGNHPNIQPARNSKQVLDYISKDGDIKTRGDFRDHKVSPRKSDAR
# Assay: as above
# Procedure: as §1
row,Sequence,uncleaved DNA left (log2)
1,CTGGAGA,0.111
2,TGATCGG,1.44
3,CATTGGG,0.595
4,CTGCGCC,-0.461
5,GAGGTTT,-0.318
6,ATTGCTG,-0.124
7,TCGTGAT,0.716
8,CAATGCG,1.29
9,TTACTGC,-0.942
10,CCCCAGG,0.93
11,ATTATGG,0.357
12,TTTATTT,-2.35
13,TAACTTG,-2.37
14,GATAAAT,0.608
15,ACTACTG,-0.118
16,TTCAAAC,0.0324
17,TTGTATA,-0.687
18,TATATAG,-0.615
19,AACCCAA,0.192
20,TTGACGA,-0.372

row,Sequence,uncleaved DNA left (log2)
1,CTAGACT,-0.983
2,GATGGTT,0.0942
3,CTTCAAC,-1.71
4,TAGGGAA,1.34
5,GATAAGC,0.179
6,TAACATT,-2.92
7,CTAAGCA,-1.54
8,GCAGGGT,1.24
9,GAATTAA,0.399
10,TAACCCG,-1.68
11,ATCCGCT,-1.19
12,CCAGACC,0.295
13,GTCTGCA,0.396
14,AACAGGC,-0.239
15,TGCTACG,-1.08
16,ACATCGT,-1.04
17,GCTTTAA,0.323
18,CCTCCGG,1.05
19,ACTCCGT,-0.545
20,TGACGTG,0.0177

# Test system: T5, Rep nickase domain of faba bean necrotic yellows virus
# T5 sequence (Rep 1-98, printed without the tag): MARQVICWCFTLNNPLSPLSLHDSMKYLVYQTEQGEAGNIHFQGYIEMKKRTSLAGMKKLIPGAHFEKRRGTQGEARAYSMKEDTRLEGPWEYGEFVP
# Assay: as above
# Procedure: as §1
row,Sequence,uncleaved DNA left (log2)
1,CTGGAGA,0.125
2,TGATCGG,0.00135
3,CATTGGG,0.0768
4,CTGCGCC,0.104
5,GAGGTTT,-0.067
6,ATTGCTG,0.0131
7,TCGTGAT,-0.0557
8,CAATGCG,0.105
9,TTACTGC,0.124
10,CCCCAGG,-0.00751
11,ATTATGG,-0.0346
12,TTTATTT,0.00597
13,TAACTTG,-0.102
14,GATAAAT,0.0111
15,ACTACTG,0.072
16,TTCAAAC,0.0433
17,TTGTATA,0.118
18,TATATAG,0.0883
19,AACCCAA,-0.00494
20,TTGACGA,-0.0551

row,Sequence,uncleaved DNA left (log2)
1,CTAGACT,0.0945
2,GATGGTT,-0.0339
3,CTTCAAC,-0.057
4,TAGGGAA,-0.0188
5,GATAAGC,0.201
6,TAACATT,-0.18
7,CTAAGCA,0.0207
8,GCAGGGT,-0.00743
9,GAATTAA,0.0114
10,TAACCCG,0.0721
11,ATCCGCT,0.0172
12,CCAGACC,0.19
13,GTCTGCA,-0.0705
14,AACAGGC,-0.0102
15,TGCTACG,-0.0832
16,ACATCGT,0.0551
17,GCTTTAA,0.0873
18,CCTCCGG,-0.147
19,ACTCCGT,-0.0238
20,TGACGTG,0.015
